This is one part of the list.
test system: PfSIP2 AP2 domain 1 (GST-tagged); test: gcPBM binding intensity (ln(normalized median fluorescence intensity)); higher = stronger DNA binding
Outline: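 GST-tagged P. falciparum DNA-binding domains produced in E. coli were incubated for 1 h on an Agilent 4 × 180k array of primer-extended double-stranded 36-bp intergenic genomic probes with negative controls. Binding intensity is the highest Masliner-normalised natural-log median intensity across replicate spots of either probe orientation, with bound protein detected by Alexa488 anti-GST antibody at 488 nm.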

Sequence	gcPBM binding intensity (ln)
TTTTTTTTCTTTTTTTTAAGAAATAAATAAATAATT [XGTACX_negctrl_site137]	6.77
ACTTAATTTTTTTTATGTACTTATTTAAAAAATTTT [XGTACX_site2712]	7.35
CTTAAAGGGAAAAATACACACATATAAATATTATGT [CACACA_site2225]	6.83
TTAGTAGTATTATGTAGTACATAATTATCATATCAT [XGTACX_site817]	6.87
TAATTATTTTTATATTGTACAATATGTAAATATATA [XGTACX_site592]	6.97
TTTTTTGAATTTAAAAGTACAGGCTTTTACCAAATA [XGTACX_site1356]	6.93
AAAAAAAAAAAAAAAAGTACATACAACATTATGAAA [XGTACX_site207]	7.73
ATAAATAAATAAATCTGTACATATGTATATGTATAT [XGTACX_site4537]	7.05
AATTAAAAAAAAAAAAAAAAAAAAAAATGAAAAAAA [CACACA_negctrl_site1073]	6.69
AAAAAAGAAAAAAAGTGTACAATATTTATTACATAT [XGTACX_site2277]	6.9
ATAATCCTTGGACACACACACACACTAGTAAATAAA [CACACA_site4423]	7.26
AACCCAAAATAATTATGTACATATTTTTAAATATAT [XGTACX_site6487]	7.26
TTTGTGTATATAACAGTGCAATATTATAAATATAAA [GTGCAC_site9750]	8.53
GCAAAGCACAAATATGCATGTAGATATAGAATAATG [TGCATGCA_site382]	7.68
CATCCAAAAATATTATGTACTAAATTTGGATGTATT [XGTACX_site3954]	6.8
TATAAAATTATGTGTACACAAATATAACTTTTCTTT [CACACA_site5554]	6.94
TATTCATATTCCAAGTGTACACATAAATCCCTAATA [XGTACX_site4131]	7.55
AAAATATTTCTTCTTTGTACTTATATATATTTAATT [XGTACX_site5446]	7.01
TACTTACCTATAATAACACACAAGAAAAAAATAAAA [CACACA_site6616]	7.26
AAATAATATCATAAATGTACATATATCATATTATTA [XGTACX_site5372]	6.9
AAATTATAGAATCATTGTACTTTTTTTTTTTTTTTT [XGTACX_site1280]	7.61
CTCATCCTTACATACACACACATATATTTATTTATA [CACACA_site6202]	7.46
TATGCTTCAAAATTGTGTACATATATAATATATTAT [XGTACX_site6760]	7.18

Sequence	gcPBM binding intensity (ln)
TTAATAATTATAACATGTACATACACTAAATTTTTT [XGTACX_site8953]	7.31
CAAATATATATTTATTGTACATATTGTTTATATGGT [XGTACX_site5246]	7.14
AAATATTTATATGTTACACACTGTTTATAATTTTCT [CACACA_site4868]	6.75
CAATGTATTTAGAATACATGCATATTTTCATAATGT [TGCATGCA_site221]	6.76
AATTATGCACAAATCACACATATAAAATAAAAAGTG [CACACA_site4474]	7.87
AAATCCATATAGGATTGTACATATATTATATATATA [XGTACX_site8818]	7.94
AATTCTTTACTATTCACACATATAAATATTCACTTT [CACACA_site4886]	7.07
CAAAATGTTAAAGATACACACCTAACAAACACAAAA [CACACA_site4685]	7.01
ACATATATATTTATATGTACATATATTTATATATAT [XGTACX_site7469]	7.27
GTGGTATAAATTTTATGTACTTAATAACTCATTAAT [XGTACX_site5555]	7.08
AAAAATATTTAAAATACACACATATCTATAATATAT [CACACA_site7032]	6.95
AAAAAAAAAAAACACACACACACAAATACATACACA [CACACA_site706]	7.19
ATATAGTTTCACATGTGTACATAAAAATACACTTGT [XGTACX_site3339]	7.06
ACAAAAATGAGATGGTGTACGCACAAATAAATAATA [XGTACX_site5221]	7.51
TTTAATTTATATAATGATATTAAGTTGGTTATTAGG [CACACA_negctrl_site329]	6.76
GAAAATTCATAAAAATGTACTTATTATATTATTTAT [XGTACX_site2169]	6.81
AAAGGTTTGCGTTGTGTGCACAAAATAAATATATAA	8.58
TTATGAATATTGATGTATAAAAAAATATATATGTTA [XGTACX_negctrl_site390]	6.98
GATATATAACTTTTAACACACAAAAAAAAAAAAAAT [CACACA_site7653]	7.05
TAAAATTATGTAATAACACACATATACAATACATAT [CACACA_site1236]	6.93
TTTTTTATTTAAAGTAGTACTTTTTAGAAAACAAAA [XGTACX_site6759]	6.88
ATTCTAAATATGTATATACACACTTTTAATATTCAT [CACACA_site4118]	7.22
TTTATGAAACAGTGCACACATAAAAATAAATACATA [CACACA_site5631]	11.2

Sequence	gcPBM binding intensity (ln)
TTATTTTAAATTAACACATGCATAATATATGTATAT [TGCATGCA_site597]	6.91
AAAAAAATTTTAAAATGTACAAATTTTAATATATAT [XGTACX_site7628]	6.91
TTTTCAAAAATATACACACACATAAATATATGTATA [CACACA_site777]	7
AGGTTGAATATATATTTGTGATTATATTATTTTATT [CACACA_negctrl_site778]	6.8
TATATATATATATAATGTACAAACTCCTTTATATAT [XGTACX_site4545]	9.2
CCATGTCAAACATTTGCACACAAAAAAATAAAAATT [CACACA_site4546]	7.37
TCATTCAAAAAAAATCAACACACAGTTACATAGCTC [CACACA_site8700]	6.89
GTTTTTTTTATATATTGTACAAATAATATATTATAT [XGTACX_site29]	7.67
TTTTAAAAAAAAAAAATAAATAAATAAGATATTATC [CACACA_negctrl_site1791]	6.47
TTTTAAAACTACATTGGTACACAATAAAAAAAAAAA [XGTACX_site2793]	7.13
AAAAAAAAAAAAAAAGCACACATATAAATATGAATA [CACACA_site8391]	7.5
TCATATATATTATACACACACATATATAAATATATA [CACACA_site967]	7.03
AACACCAAACTAAATGTACACACATACATAAATATA [CACACA_site8298]	7.14
AATATAAACACAAACACACACATATATATATATATA [CACACA_site4307]	9.52
TTATTTAAACAAATCACACACAAATATAAATACATA [CACACA_site5158]	7.09
TTATGTTATATATACACACACAAAAGAAAAAAAAAA [CACACA_site2987]	6.9
AGGTTAAAAATAAATACACACATTTGATGTCTGTAT [CACACA_site6596]	6.73
ATATAACATATTAATAATATATTTATAATATGTTTA [GTGCAC_negctrl_site168]	6.96
TTTTGAGAATATATGGGTACAAATAAATAAAAATAT [XGTACX_site1933]	7.26
AAATTTAAATAATGTGCGCATCTTAATATATATAAG [GTGCAC_site9890]	9.04
AAATAATATTGAAAAGTGCATATTTTTGTTGATATA	8.42
CATATAAATAGACACACACACACATATAAATAAATA [CACACA_site7156]	7.23
TAATAAAAAAAGTGCACACACATAATATATATATAT [CACACA_site3340]	10.4

Sequence	gcPBM binding intensity (ln)
TATAAATCAATATGTACACACATATACATGTTGAAT [CACACA_site7460]	7.01
CATATAATATATCAATGTACATATATATTTTATAAA [XGTACX_site5901]	6.99
TTAGCAACTATTACTACACACATTTTTATATAATTT [CACACA_site1372]	7.17
ATTGTCAAAACACGCACACACATATACATAATAACA [CACACA_site1742]	7.36
ATTATATACATATATATTGTATATACTATACATATG [XGTACX_negctrl_site545]	6.84
ATATATACCTATAACACACACATATTTATATTTATA [CACACA_site7257]	7.16
TCTTATTTAAAAATAGCACACATTATATATATATAT [CACACA_site8916]	9.18
ATATATATATAAAGGAGTACATACATTAAAAAAAAA [XGTACX_site1095]	8.7
AAAAAACATACATACACACACATAAATATATATATT [CACACA_site2699]	7.11
TCCTTGTTTGGTTTTTTTTTTTCTTCTTTTTTTTTT [CACACA_negctrl_site1355]	6.93
TATGAAACGATATATGTGCACATGAGGGAATATAGA [GTGCAC_site9611]	8.75
TTAAATGTTATATATTGTACATATAATATATGTATT [XGTACX_site1492]	6.97
ATAAAAGATTTATACATACACACATATTATATTCAC [CACACA_site3714]	7.12
TTTTTTTTTTTTTTTTAACACACATATATATATTTT [CACACA_site8585]	7.14
ATATATATGTATATAACATGCAACATTTAATAATAA [TGCATGCA_site1018]	7.18
ACACATGTATTTGGTGCATGTTGTTAAAAAAATATT [TGCATGCA_site795]	10.8
TCATAGCTAGGATAACGTACAGAAAAGTGAAAAATT [XGTACX_site3322]	7.16
TTTTTTTTTTGTTGTTGTACTCTTATATTTTTATAT [XGTACX_site6178]	7.14
ATTCTAGTAATATATGTATATTTATATATGTATGTG [XGTACX_negctrl_site419]	6.89
GATCTATTGAGTGATACATGCAGGAAAATTAAAAAC [TGCATGCA_site729]	7.34

Source: the supplement of paper PMC11417369
